According to PMC5625722:
Results are given in words; binding and its absence hold for the method and conditions named. For some of these results: In cells and extracts the contact can be indirect. Some binding calls cover weakened binding; strength is not graded here. For some of these results: Tags and fused reporters may be left off the sequences shown.

Amino acid sequences for entries named in this document (tags omitted). Residues count along the entry.
UniProt P02769, residues 25-607: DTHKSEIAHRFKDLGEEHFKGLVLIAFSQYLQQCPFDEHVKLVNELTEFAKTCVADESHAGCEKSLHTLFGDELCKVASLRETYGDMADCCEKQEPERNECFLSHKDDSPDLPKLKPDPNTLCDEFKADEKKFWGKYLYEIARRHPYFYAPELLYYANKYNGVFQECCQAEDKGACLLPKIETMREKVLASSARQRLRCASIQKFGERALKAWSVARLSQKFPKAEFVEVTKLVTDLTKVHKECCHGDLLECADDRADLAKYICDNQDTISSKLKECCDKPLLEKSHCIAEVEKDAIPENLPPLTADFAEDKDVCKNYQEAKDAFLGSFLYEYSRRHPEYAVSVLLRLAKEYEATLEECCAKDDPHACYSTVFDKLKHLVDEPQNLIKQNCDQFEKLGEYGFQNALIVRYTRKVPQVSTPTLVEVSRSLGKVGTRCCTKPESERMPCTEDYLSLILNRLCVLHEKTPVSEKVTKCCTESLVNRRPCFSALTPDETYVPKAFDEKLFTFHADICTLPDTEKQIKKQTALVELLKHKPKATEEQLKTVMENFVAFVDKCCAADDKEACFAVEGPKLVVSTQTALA

Assays:
[1] = biological target: T1, Mus81 protein alone (yeast) (UniProt Q04149); assay: pull-down; purified His-tagged Mus81-Mms4, Mus81 or Mus81 (1-319) mixed with yeast cell extract (150 μL) containing Flag-tagged RFC2 or RFC4, captured on Ni-NTA beads, 30 min at 4 °C; washed with IP150 buffer (150 mM KCl, 0.5% Triton X-100); anti-Flag and anti-His immunoblot; only the target purified
T1 sequence: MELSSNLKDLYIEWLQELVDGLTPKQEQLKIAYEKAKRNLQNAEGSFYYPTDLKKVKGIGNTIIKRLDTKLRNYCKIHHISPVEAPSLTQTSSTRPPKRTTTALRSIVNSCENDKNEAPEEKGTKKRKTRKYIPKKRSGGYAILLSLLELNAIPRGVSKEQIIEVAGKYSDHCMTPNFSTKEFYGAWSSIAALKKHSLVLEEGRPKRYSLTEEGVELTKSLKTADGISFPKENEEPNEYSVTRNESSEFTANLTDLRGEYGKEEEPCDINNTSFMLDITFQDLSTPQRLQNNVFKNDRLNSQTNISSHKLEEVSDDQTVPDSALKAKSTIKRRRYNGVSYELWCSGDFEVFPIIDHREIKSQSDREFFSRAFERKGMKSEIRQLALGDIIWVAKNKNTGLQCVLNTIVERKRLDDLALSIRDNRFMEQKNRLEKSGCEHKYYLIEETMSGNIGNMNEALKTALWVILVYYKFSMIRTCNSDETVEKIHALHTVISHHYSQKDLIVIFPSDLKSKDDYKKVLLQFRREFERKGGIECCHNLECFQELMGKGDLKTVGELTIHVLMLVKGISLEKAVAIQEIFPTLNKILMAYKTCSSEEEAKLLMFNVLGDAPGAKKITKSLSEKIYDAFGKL

[2] = biological target: T2, Mus81-Mms4 complex (yeast) (UniProt Q04149+P38257); assay: as above
T2 sequence 1: T1 sequence
T2 sequence 2: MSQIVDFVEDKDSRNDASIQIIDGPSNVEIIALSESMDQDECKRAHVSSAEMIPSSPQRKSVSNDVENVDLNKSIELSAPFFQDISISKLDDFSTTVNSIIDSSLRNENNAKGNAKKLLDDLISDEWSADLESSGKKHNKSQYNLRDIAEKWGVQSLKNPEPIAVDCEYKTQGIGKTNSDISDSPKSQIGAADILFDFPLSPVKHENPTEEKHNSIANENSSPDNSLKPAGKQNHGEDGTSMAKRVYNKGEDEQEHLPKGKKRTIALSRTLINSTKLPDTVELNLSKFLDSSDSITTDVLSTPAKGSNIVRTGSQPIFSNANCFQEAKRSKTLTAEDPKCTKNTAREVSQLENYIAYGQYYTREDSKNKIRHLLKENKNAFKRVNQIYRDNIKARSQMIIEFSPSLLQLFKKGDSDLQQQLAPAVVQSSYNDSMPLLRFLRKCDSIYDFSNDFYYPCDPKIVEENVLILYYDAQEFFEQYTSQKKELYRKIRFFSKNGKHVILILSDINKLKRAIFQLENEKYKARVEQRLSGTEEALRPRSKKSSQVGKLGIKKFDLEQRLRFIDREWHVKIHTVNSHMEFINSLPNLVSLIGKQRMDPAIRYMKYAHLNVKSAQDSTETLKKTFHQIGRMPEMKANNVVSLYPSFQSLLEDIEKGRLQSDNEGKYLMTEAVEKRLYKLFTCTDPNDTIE

[3] = biological target: T3, N-terminal fragment of Mus81 (1-319) (yeast) (UniProt Q04149); assay: as above
T3 sequence: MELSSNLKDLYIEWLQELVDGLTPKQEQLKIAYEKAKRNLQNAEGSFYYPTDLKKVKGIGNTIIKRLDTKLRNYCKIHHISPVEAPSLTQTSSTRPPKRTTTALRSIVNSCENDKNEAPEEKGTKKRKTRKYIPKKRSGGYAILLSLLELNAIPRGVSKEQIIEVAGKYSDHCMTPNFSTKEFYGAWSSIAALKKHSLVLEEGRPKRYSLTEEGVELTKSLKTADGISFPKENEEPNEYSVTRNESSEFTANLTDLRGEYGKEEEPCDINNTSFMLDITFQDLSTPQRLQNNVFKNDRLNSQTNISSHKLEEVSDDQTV

[4] = biological target: bovine serum albumin (BSA) (bovine) (UniProt P02769); assay: pull-down; PCNA or BSA covalently bound to Affi-beads; purified Mus81-Mms4 (5 μg); Tris buffer with 100 mM KCl, 30 min at 4 °C; washed twice with 150 mM KCl; SDS gel; both purified

B1: Flag-tagged RFC2 (protein, UniProt P40348 1-353)
chain: MFEGFGPNKKRKISKLAAEQSLAQQPWVEKYRPKNLDEVTAQDHAVTVLKKTLKSANLPHMLFYGPPGTGKTSTILALTKELYGPDLMKSRILELNASDERGISIVREKVKNFARLTVSKPSKHDLENYPCPPYKIIILDEADSMTADAQSALRRTMETYSGVTRFCLICNYVTRIIDPLASRCSKFRFKALDASNAIDRLRFISEQENVKCDDGVLERILDISAGDLRRGITLLQSASKGAQYLGDGKNITSTQVEELAGVVPHDILIEIVEKVKSGDFDEIKKYVNTFMKSGWSAASVVNQLHEYYITNDNFDTNFKNQISWLLFTTDSRLNNGTNEHIQLLNLLVKISQL
- binding [1]: binds
- binding [2]: binds
- binding [3]: binds

B2: Flag-tagged RFC4 (protein, UniProt P40339 1-323)
chain: MSKTLSLQLPWVEKYRPQVLSDIVGNKETIDRLQQIAKDGNMPHMIISGMPGIGKTTSVHCLAHELLGRSYADGVLELNASDDRGIDVVRNQIKHFAQKKLHLPPGKHKIVILDEADSMTAGAQQALRRTMELYSNSTRFAFACNQSNKIIEPLQSRCAILRYSKLSDEDVLKRLLQIIKLEDVKYTNDGLEAIIFTAEGDMRQAINNLQSTVAGHGLVNADNVFKIVDSPHPLIVKKMLLASNLEDSIQILRTDLWKKGYSSIDIVTTSFRVTKNLAQVKESVRLEMIKEIGLTHMRILEGVGTYLQLASMLAKIHKLNNKA
- binding [1]: binds
- binding [2]: binds
- binding [3]: binds

B3: Mus81-Mms4 complex (complex, UniProt Q04149 1-632; P38257 1-691)
chain 1: T1 sequence
chain 2: T2 sequence 2
- binding [4]: no binding (tested: 5 μg Mus81-Mms4)
